About 14,000 (4.5%) of roughly 310,000 compounds showed an effect of 50% or more. The effect is printed as a negative number. The list shows a part of the results.
target: human ether-à-go-go-related gene (hERG) potassium channel (human, UniProt Q12809); assay: primary screen, population patch clamp on CHO cells stably expressing hERG
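Also: peak tail current of the secondary pulse compared with the same well before compound.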

Chain of human ether-à-go-go-related gene (hERG) potassium channel (Q12809 whole entry, looked up): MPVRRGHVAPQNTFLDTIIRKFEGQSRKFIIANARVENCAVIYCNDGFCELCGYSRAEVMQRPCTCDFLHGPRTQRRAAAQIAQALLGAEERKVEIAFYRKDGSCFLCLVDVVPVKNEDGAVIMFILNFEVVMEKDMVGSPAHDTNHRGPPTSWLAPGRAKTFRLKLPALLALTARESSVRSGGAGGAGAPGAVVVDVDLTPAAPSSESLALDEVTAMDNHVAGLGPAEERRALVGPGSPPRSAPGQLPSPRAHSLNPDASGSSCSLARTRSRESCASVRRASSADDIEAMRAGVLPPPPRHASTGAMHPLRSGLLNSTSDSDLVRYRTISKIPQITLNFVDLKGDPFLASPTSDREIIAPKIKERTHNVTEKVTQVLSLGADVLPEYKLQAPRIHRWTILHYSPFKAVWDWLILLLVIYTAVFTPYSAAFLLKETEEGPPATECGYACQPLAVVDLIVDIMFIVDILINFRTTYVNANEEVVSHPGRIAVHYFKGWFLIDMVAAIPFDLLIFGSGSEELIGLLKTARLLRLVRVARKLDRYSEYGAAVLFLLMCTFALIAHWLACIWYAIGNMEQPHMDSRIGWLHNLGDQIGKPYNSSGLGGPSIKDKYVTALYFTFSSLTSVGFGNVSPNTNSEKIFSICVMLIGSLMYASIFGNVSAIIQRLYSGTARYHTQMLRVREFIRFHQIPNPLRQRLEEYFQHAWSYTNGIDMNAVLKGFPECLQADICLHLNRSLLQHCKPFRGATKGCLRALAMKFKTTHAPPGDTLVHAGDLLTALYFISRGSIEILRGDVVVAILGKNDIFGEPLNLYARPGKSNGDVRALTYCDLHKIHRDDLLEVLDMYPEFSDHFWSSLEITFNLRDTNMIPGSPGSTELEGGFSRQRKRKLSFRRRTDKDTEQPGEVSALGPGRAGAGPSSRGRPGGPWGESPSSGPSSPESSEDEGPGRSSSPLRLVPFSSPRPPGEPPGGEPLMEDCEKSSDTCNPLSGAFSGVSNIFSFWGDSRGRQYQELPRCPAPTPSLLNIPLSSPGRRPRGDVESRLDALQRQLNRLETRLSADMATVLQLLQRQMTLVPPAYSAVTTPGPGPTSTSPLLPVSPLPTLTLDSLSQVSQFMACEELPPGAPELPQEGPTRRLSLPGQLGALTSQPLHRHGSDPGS

SMILES | hERG current change (%, negative = inhibition) at 10uM [%]
Cc1ccc(OCCCn2c(CO)nc3ccccc32)cc1 | -14.2
CCOc1ccc2[nH]c(=O)c(CN(CCCO)S(=O)(=O)c3ccc(F)cc3)cc2c1 | -34.4
O=C(NCc1ccccc1)c1ccc(Br)cc1Br | -4.2
Cn1cccc1-c1cc(C(=O)N/N=C/c2ccccc2Cl)[nH]n1 | 13.1
CCOc1ccccc1NC(=O)Nc1ccc(Br)cc1C | 24.3
CC(C)(C)c1cc(-c2ccccc2)n[nH]1 | -18.3
COc1ccc(C(=O)NC(=S)NNC(=O)c2ccccc2C)cc1 | 17.7
CCN(CCNC(=O)Nc1ccc(Cl)cc1)c1ccccc1 | 11.3
O=C1CSC(c2ccc3c(c2)OCO3)N1c1ccc(Oc2ccccc2)cc1 (centres unmarked) | -7.9
Oc1ccc(-c2nnc(SCc3ccccc3)o2)cc1 | -8.15
O=C(Nc1ccc([N+](=O)[O-])cc1)C(=O)Nc1cccc(C(=O)O)c1 | -6.06
O=C1C2C3C=CC(C3)C2C(=O)N1Cc1cccnc1 (centres unmarked) | 3.96
Cn1cccc1CNC(=S)Nc1ccccc1Cl | 4.04
COc1cc(C(=O)N2C(=O)c3cccc(N)c3C2=O)cc(OC)c1OC | 17.4
O=C(c1cc(F)c(F)cc1Cl)N1CCN(c2ncccn2)CC1 | 16.4
Cc1ccc(CNC(=O)[C@@H]2CCC(=O)N2Cc2ccco2)cc1 | 18
COc1ccc(-c2nc(CS(=O)CC(=O)NCc3ccc(Cl)cc3)c(C)o2)cc1 (centres unmarked) | -13.2
CCOC(=O)/C=C1\NC(C)(C)Cc2cc(OC)c(O)cc21 | -9.32
CCOC(=O)N1CCC(NC(=S)Nc2ccc3nc(N4CCN(C)CC4)cc(C)c3c2)CC1 | -1.48
COc1ccc(/C=C2/SC(=S)N(CCC(=O)N3CCN(C)CC3)C2=O)cc1 | 3.99
COc1ccccc1CNC(=O)C(=O)NCCC1CCCCN1S(=O)(=O)c1cccs1 (centres unmarked) | 3.86
NS(=O)(=O)c1cccc(NC(=O)CCC(=O)c2cccs2)c1 | 17.1
NC(=S)Nc1ccc(F)cc1F | 3.9

SMILES | hERG current change (%, negative = inhibition) at 10uM [%]
CCCc1c(C)nc(N2CCN(c3ccccc3OC)CC2)[nH]c1=O | 25.2
CCOC(=O)N1CCN(C(=O)Cn2cnc3ccccc3c2=O)CC1 | 6.6
COc1ccc(C(=O)CC(=O)C(=O)Nc2cccc([N+](=O)[O-])c2C)cc1 | 16.5
Cc1ccc(CCNC(=O)c2nnc(CS(=O)(=O)c3ccccc3)o2)cc1 | -8.64
Cc1cc(C(=O)COC(=O)c2ccc([N+](=O)[O-])o2)c(C)n1CC1CCCO1 (centres unmarked) | -42.5
COc1cccc(-c2ncc3ccccc3c2COC(=O)N2CCCCC2)c1 | -11.4
COc1ccc(-n2ncc3c(NCc4cccs4)ncnc32)cc1 | 1.33
Cc1nn(C)cc1S(=O)(=O)Nc1ccccc1Br | 13.7
CC1(C)S/C(=N/N=C/c2cccs2)NC1=O | 10.1
CCCCOC(=O)NS(=O)(=O)c1sc(CC(C)C)cc1-c1ccc(Cn2c(CC)nc3c(C)cc(C)nc32)cc1 | 5.9
O=C(NCc1cccnc1)c1cn(CCc2ccccc2)nn1 | -11.4
Cc1cc(=O)oc2cc(OC(C)C(=O)Nc3nccs3)ccc12 (centres unmarked) | -6.45
CNC(=O)C1CC(=O)N(c2ccc(F)c(Cl)c2)C1 (centres unmarked) | -1.43
O=c1c2ccccc2nc2n1CCN2Cc1ccc(Cl)cc1 | -51.9
COC(=O)c1ccc(C(=O)OC)nc1 | 13
CCn1c(=O)c(C(C)=O)nc2ccccc21 | -1.03
O=c1cc(-c2ccccc2)c2c(O)cc(O)cc2o1 | -17.7
COc1ccc(C2NC(=O)CCC2[N+](=O)[O-])cc1 (centres unmarked) | 23.5
O=C(CN(C(=O)c1csnn1)c1cccc2c1CCCC2)NC1CCCC1 | 7.48
C=CCNC(=O)CCc1nnc(C2(c3ccc(Cl)cc3)CCC2)o1 | 4.09
COc1ccccc1CCNS(=O)(=O)CCNC(=O)c1ccccc1 | -14
CCOC(=O)c1ccc(NC(=S)NCCc2ccc(OC)c(OC)c2)cc1 | -2.92
CCOc1ccc(/C(C)=N/NC(=O)C(OC)c2ccccc2)cc1 (centres unmarked) | 28.6

SMILES | hERG current change (%, negative = inhibition) at 10uM [%]
CN(C)S(=O)(=O)Nc1cccc(Br)c1 | -14.2
O=C(Nc1cccc(F)c1)Nc1ccc(Cl)cn1 | 7.51
O=C(Cn1cccn1)c1ccccc1 | 33.3
O=C(CN1CCCCC1)Nc1nnc(-c2ccc([N+](=O)[O-])cc2)s1 | -14.1
COC(=O)c1ccc(N=Cc2c(C(F)(F)F)[nH][nH]c2=O)cc1 | 27.2
CCOC(=O)c1sc2nc(COC(=O)c3c(F)cccc3F)[nH]c(=O)c2c1C | 23.5
O=C1C=C(c2ccc(Cl)c(C(F)(F)F)c2)C[C@@H](c2ccc(F)cc2)C1 | 26.4
O=C(c1ccccn1)N1CCCC(N2CCN(c3cccc(C(F)(F)F)c3)CC2)C1 (centres unmarked) | -28.8
COc1ccc(OCC(=O)Nc2ccc3c(c2)nc(CCN2CCCC2)n3C)cc1 | -55
O=C(Nc1ccc2c(c1)OCO2)C1CCCCN1S(=O)(=O)c1ccc(F)cc1 (centres unmarked) | -18.3
COc1ccc(CCNC(=O)CSc2ccc(-c3ccco3)nn2)cc1OC | 12.6
NC(=S)N/N=C/c1ccccc1OCc1cccc(Cl)c1 | 8.44
C/C(=N\NC(=O)c1cccc(S(=O)(=O)N2CCOCC2)c1)c1ccc(O)cc1 | 11.4
Cc1ccc(S(=O)(=O)NNC(=O)CCC(=O)Nc2ccccc2Cl)cc1 | 9.9
Cc1ccc[n+](-c2nc3ccccc3nc2C(=C=[N-])C#N)c1 | 9.43
N=C1/C(=C\c2ccc(OC(=O)c3ccc(F)cc3)cc2)C(=O)N=C2SC(N3CCOCC3)=NN12 | 17.3
O=C(COc1cccnc1[N+](=O)[O-])N1CCN(C(=O)c2ccco2)CC1 | -34.2
C/C(Cl)=C/Cn1c(SCC(C)C)nc2c1c(=O)[nH]c(=O)n2C | 15.2
CCOCc1cc(C)[nH]c(=O)c1C#N | -22.7
CCNc1ccc2noc3c2c1C(=O)c1ccccc1-3 | 1.12
NC(=O)NC(CC(=O)NCCc1ccc(S(N)(=O)=O)cc1)c1ccc(Cl)cc1 (centres unmarked) | 14.1
O=C(CN1C(=O)NC2(CCCCCCC2)C1=O)N1CCN(C(=O)c2ccco2)CC1 | -5.03
CN1CCN(C(=O)C2=C[C@@H](c3csc4ccccc34)C[C@@H](OCc3ccc(CO)cc3)O2)CC1 | -8.28

SMILES | hERG current change (%, negative = inhibition) at 10uM [%]
CCCC(C)c1nnc(NC(=O)C(=O)OCC)s1 (centres unmarked) | 4.96
COc1ccccc1N1CCN(c2cnccn2)CC1 | -2.25
CC(C)NC(=O)c1ccccc1-c1ccccc1 | 15.9
CC1(C)CC(=O)C2=C(C1)Nc1ccccc1NC2c1ccccc1F (centres unmarked) | 12.3
CCc1ccc(CNC(=O)CN2C(=O)COc3ccccc32)cc1 | -4.31
CC(=O)Nc1ccc(C(=O)NC(C)c2ccc(-n3ccnc3)cc2)cc1 (centres unmarked) | 7.74
COc1ccc(-c2cnc3ccccc3n2)cc1NC(=O)CNC(=O)c1ccccc1 | 12.5
COC(=O)c1[nH]c2ccc(F)cc2c1NS(=O)(=O)c1ccc(OC)cc1OC | -19.5
COc1ccc(NC(=O)C2CCCO2)cc1 (centres unmarked) | -0.956
CC(=O)Nc1ccc2c(c1)C(C)(C)C(C)N2C (centres unmarked) | 15
CC1CC(=O)Nc2ccccc2N1C(=O)CSc1ncnc2sccc12 (centres unmarked) | -7.75
COc1ccc(/C=C/C(=O)N2CCCc3ccccc32)cc1 | -16.8
COC(=O)c1nnn(CC(=O)Nc2cc(Cl)ccc2C)c1C(=O)OC | 1.19
COCc1nnc(NC(=O)CCc2ccccc2)s1 | -34.6
COc1ccc(Oc2coc3cc(O)ccc3c2=O)cc1 | -5.68
COc1ccc(-n2c(C)c(C(C)=O)c3cc(OC(C)=O)ccc32)cc1 | 25.8
Cc1cccc(NC(=O)COC(=O)CCc2ccccc2)c1C | 10.7
CN(CC(=O)Nc1ccc(S(=O)(=O)N2CCOCC2)cc1)Cc1ccc(F)cc1 | -14.2
CC(C)c1nnc(SCC(=O)N2CCc3ccccc32)n1N | 19.2
CCc1ccc(OCC(=O)N/N=C\c2ccco2)c([N+](=O)[O-])c1 | -67.4
COCCOC(=O)C1=C(C)NC2=C(C(=O)CC(C)(C)C2)C1c1ccc(N(C)C)cc1 (centres unmarked) | 3.33
Cc1noc(-c2ccccc2)c1NC(=O)Nc1ccccc1 | 9.77
Cc1ccc(S(=O)(=O)N(C)CC(=O)OCC(=O)N2CCN(c3ccccc3)CC2)cc1 | -24.5
